Assay results: paper PMC9818421
Positions count from the first letter of the chain named. In names and notes the source's numbering stands. Results are given in words; binding and its absence hold for the method and conditions named. Binding seen in cells or lysates may run through a third protein. Some binding calls cover weakened binding; strength is not graded here. Tags and fused reporters may be left off the sequences shown. Blank lines part the entries; values can stand above or below the binder they belong to.

Experiments:
[1] = biological target: T1, FLAG-tagged perilipin 5 (human) (UniProt Q00G26); assay: co-IP; HEK293T cells transfected with PNPLA3, PNPLA3(I148M) or ATGL alone or together with FLAG-tagged PLIN1, 2, 3, 5 or ABHD5; precipitation by the FLAG tag, immunoblot
T1 sequence: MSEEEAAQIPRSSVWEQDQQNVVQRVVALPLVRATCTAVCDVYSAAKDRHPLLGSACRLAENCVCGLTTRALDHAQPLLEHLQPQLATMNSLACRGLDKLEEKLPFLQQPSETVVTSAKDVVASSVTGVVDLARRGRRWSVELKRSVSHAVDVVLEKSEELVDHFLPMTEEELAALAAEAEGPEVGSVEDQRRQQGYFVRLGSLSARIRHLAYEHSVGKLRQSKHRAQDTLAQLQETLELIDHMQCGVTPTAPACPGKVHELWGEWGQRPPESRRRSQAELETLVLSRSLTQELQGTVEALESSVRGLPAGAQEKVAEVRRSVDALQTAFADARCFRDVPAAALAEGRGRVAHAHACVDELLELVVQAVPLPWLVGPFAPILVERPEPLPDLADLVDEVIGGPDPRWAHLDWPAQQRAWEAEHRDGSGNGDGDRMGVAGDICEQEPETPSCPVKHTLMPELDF

[2] = biological target: T2, FLAG-tagged PNPLA3 (human) (UniProt Q9NST1); assay: co-IP; HEK293T cells transfected with FLAG-tagged PNPLA3, constant amounts of ATGL and increasing amounts of perilipin 5; precipitation by the FLAG tag, immunoblot
T2 sequence: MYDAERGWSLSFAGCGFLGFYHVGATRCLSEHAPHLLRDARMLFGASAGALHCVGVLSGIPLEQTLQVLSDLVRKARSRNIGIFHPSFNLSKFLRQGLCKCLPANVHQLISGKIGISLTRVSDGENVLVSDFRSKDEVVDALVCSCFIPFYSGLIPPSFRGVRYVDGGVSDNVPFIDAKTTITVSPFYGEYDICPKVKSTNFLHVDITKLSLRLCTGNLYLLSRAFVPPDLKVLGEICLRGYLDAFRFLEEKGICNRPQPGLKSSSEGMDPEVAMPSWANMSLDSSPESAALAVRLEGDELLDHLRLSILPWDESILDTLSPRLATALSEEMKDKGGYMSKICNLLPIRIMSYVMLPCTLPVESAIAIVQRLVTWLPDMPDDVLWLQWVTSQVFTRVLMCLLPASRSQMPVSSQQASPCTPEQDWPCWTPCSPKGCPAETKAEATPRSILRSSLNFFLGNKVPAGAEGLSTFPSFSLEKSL

[3] = biological target: T2, FLAG-tagged PNPLA3 (human); assay: co-IP; HEK293T cells transfected with FLAG-tagged PNPLA3 or PNPLA3(I148M) alone and/or together with ATGL, without perilipin 5; precipitation by the FLAG tag, immunoblot
[4] = biological target: T3, FLAG-tagged PNPLA3(I148M) (human) (UniProt Q9NST1); assay: as above
T3 sequence: T2 sequence with I148M

[5] = biological target: T4, FLAG-tagged perilipin 3 (human) (UniProt O60664); assay: co-IP; HEK293T cells transfected with PNPLA3, PNPLA3(I148M) or ATGL alone or together with FLAG-tagged PLIN1, 2, 3, 5 or ABHD5; precipitation by the FLAG tag, immunoblot
T4 sequence: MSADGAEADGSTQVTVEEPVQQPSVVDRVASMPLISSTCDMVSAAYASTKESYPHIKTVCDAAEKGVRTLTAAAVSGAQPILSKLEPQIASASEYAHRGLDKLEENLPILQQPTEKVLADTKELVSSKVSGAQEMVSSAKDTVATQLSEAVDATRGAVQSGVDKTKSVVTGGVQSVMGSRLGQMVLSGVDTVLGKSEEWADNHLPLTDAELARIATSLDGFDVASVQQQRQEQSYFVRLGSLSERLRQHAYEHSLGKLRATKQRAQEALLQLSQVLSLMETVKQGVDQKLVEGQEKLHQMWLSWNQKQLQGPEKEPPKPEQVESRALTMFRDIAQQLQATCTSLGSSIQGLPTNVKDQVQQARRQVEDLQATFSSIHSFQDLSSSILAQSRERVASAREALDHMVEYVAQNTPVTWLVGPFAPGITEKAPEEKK

[6] = biological target: T2, FLAG-tagged PNPLA3 (human); assay: co-IP; HEK293T cells transfected with FLAG-tagged PNPLA3 and ATGL alone and together with increasing amounts of PLIN1; precipitation by the FLAG tag, immunoblot of PNPLA3, ATGL and perilipin 1
[7] = biological target: T5, FLAG-tagged ATGL and HA-tagged ATGL (two differently tagged copies) (UniProt Q96AD5); assay: co-IP; HEK293T cells transfected with FLAG-tagged ATGL alone and together with HA-tagged ATGL; precipitation by the FLAG tag, immunoblot of HA and FLAG
T5 sequence: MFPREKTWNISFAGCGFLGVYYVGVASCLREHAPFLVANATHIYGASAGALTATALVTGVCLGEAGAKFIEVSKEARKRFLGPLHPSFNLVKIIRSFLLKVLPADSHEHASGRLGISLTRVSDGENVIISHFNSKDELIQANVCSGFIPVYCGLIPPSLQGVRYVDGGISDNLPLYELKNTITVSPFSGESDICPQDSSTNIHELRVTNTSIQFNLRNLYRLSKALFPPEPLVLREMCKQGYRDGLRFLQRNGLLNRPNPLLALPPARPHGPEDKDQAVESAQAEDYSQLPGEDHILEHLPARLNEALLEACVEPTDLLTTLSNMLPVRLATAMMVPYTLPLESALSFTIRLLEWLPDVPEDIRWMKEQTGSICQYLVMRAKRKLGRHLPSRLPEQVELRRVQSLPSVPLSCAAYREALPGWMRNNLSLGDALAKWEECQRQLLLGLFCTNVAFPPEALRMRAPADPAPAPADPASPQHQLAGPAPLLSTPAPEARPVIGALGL

[8] = biological target: T5, FLAG-tagged ATGL and HA-tagged ATGL (two differently tagged copies); assay: co-IP; HEK293T cells transfected with FLAG-tagged ATGL alone and together with HA-tagged ATGL in the presence or absence of PNPLA3; precipitation by the FLAG tag, immunoblot of HA, FLAG and PNPLA3

binding [1]: binds
B1: PNPLA3(I148M), no tag named (enzyme, UniProt Q9NST1 1-481)
chain: T2 sequence with I148M

binding [2]: binds
binding [3]: binds weakly
binding [4]: binds weakly
binding [5]: no binding
binding [1]: binds
binding [6]: binds
B2: adipose triglyceride lipase (ATGL), no tag named (enzyme, UniProt Q96AD5 1-504)
chain: T5 sequence

binding [7]: binds
binding [8]: binds
B3: FLAG-tagged ATGL and HA-tagged ATGL (two differently tagged copies) (enzyme, UniProt Q96AD5 1-504)
chain: T5 sequence

binding [6]: no binding
B4: perilipin 1 co-transfected in increasing amounts (Figure 6A), no tag named (protein, UniProt O60240 1-522)
chain: MAVNKGLTLLDGDLPEQENVLQRVLQLPVVSGTCECFQKTYTSTKEAHPLVASVCNAYEKGVQSASSLAAWSMEPVVRRLSTQFTAANELACRGLDHLEEKIPALQYPPEKIASELKDTISTRLRSARNSISVPIASTSDKVLGAALAGCELAWGVARDTAEFAANTRAGRLASGGADLALGSIEKVVEYLLPPDKEESAPAPGHQQAQKSPKAKPSLLSRVGALTNTLSRYTVQTMARALEQGHTVAMWIPGVVPLSSLAQWGASVAMQAVSRRRSEVRVPWLHSLAAAQEEDHEDQTDTEGEDTEEEEELETEENKFSEVAALPGPRGLLGGVAHTLQKTLQTTISAVTWAPAAVLGMAGRVLHLTPAPAVSSTKGRAMSLSDALKGVTDNVVDTVVHYVPLPRLSLMEPESEFRDIDNPPAEVERREAERRASGAPSAGPEPAPRLAQPRRSLRSAQSPGAPPGPGLEDEVATPAAPRPGFPAVPREKPKRRVSDSFFRPSVMEPILGRTHYSQLRKKS
